{"source": "the supplement of paper PMC8728848", "binders": {"B1": {"name": "B160 (Bifidobacterium sp) (protein)", "chain": "MVSHNKRIVAALAAVAAMGIGLAGCGGSDTAGDTKSGSDGGVVNITYMHRLPDSEGMTLVNDIVAKWNKEHPNIQVKATKFDGNAADMIKKLETDVKAGNAPDLAQVGYAEVPEVFTKGLLQDVTDEAAKYKDDFASGPFALMQVDGKTYGLPQDTGPLTYFYNAAEFEKLGITVPKTADELIETAKKTAAQGKYIMTFTPDEAMMMMSGQAGASGPWYKVDGNSWVVNTQTKGSKAVADVYQQLIDNKAALTNPRWDASFDNSIQSGQLIGTVAAAWEAPLFIDSAGGTGAGEWKVTQLGDWFGNGTKTGANGGSGVAVLKGSKHPAEAMEFLDWFNTQVDDLVSQGLVVAATTADAKTPQKWSDYFSGQDVMAEFKTANDNMGDFTYMPGFSAVGAAMKQTAAKAADGSAKVSDVFDTAQKTSVDTLKNLGLSVKE"}}, "assay_in_all_cases": "glycan array binding signal (z-score within array); higher = stronger binding", "details_in_all_cases": "glycan notation: IUPAC condensed, linker removed", "key": {"[1]": {"molecular_target": "Fuc(a1-2)Gal(b1-4)GlcNAc(b1-3)Gal(b1-4)GlcNAc(b1-3)Gal(b1-4)GlcNAc", "summary_of_the_method": "(§1)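 Glycan array binding is given as a within-array Z-score, which can be read as non-binding when negative. The arrays, 3228 of them, came from the Consortium for Functional Glycomics database and were retained only where the protein sequence was available. Z-scores were averaged across arrays of the same protein sequence at different concentrations or buffers and across linkers.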"}, "[2]": {"molecular_target": "Fuc(a1-2)Gal(b1-4)GlcNAc(b1-3)GalNAc", "summary_of_the_method": "as §1"}, "[3]": {"molecular_target": "Fuc(a1-2)Gal(b1-4)GlcNAc(b1-3)[Fuc(a1-2)Gal(b1-4)GlcNAc(b1-6)]GalNAc", "summary_of_the_method": "as §1"}, "[4]": {"molecular_target": "Fuc(a1-2)Gal(b1-4)GlcNAc(b1-3)[Fuc(a1-3)[Gal(b1-4)]GlcNAc(b1-6)]Gal(b1-4)Glc", "summary_of_the_method": "as §1"}, "[5]": {"molecular_target": "Fuc(a1-2)Gal(b1-4)GlcNAc(b1-6)GalNAc", "summary_of_the_method": "as §1"}, "[6]": {"molecular_target": "Fuc(a1-2)Gal(b1-4)GlcNAc6S", "summary_of_the_method": "as §1"}, "[7]": {"molecular_target": "Fuc(a1-2)Gal(b1-4)[Fuc(a1-3)]GlcNAc", "summary_of_the_method": "as §1"}, "[8]": {"molecular_target": "Fuc(a1-2)Gal(b1-4)[Fuc(a1-3)]GlcNAc(b1-2)Man(a1-3)[Fuc(a1-2)Gal(b1-4)[Fuc(a1-3)]GlcNAc(b1-2)Man(a1-6)]Man(b1-4)GlcNAc(b1-4)[Fuc(a1-6)]GlcNAc", "summary_of_the_method": "as §1"}, "[9]": {"molecular_target": "Fuc(a1-2)Gal(b1-4)[Fuc(a1-3)]GlcNAc(b1-2)[Fuc(a1-2)Gal(b1-4)[Fuc(a1-3)]GlcNAc(b1-4)]Man(a1-3)[Fuc(a1-2)Gal(b1-4)[Fuc(a1-3)]GlcNAc(b1-2)Man(a1-6)]Man(b1-4)GlcNAc(b1-4)GlcNAc", "summary_of_the_method": "as §1"}, "[10]": {"molecular_target": "Fuc(a1-2)Gal(b1-4)[Fuc(a1-3)]GlcNAc(b1-3)Gal(b1-4)[Fuc(a1-3)]GlcNAc", "summary_of_the_method": "as §1"}, "[11]": {"molecular_target": "Fuc(a1-2)Gal(b1-4)[Fuc(a1-3)]GlcNAc(b1-3)Gal(b1-4)[Fuc(a1-3)]GlcNAc(b1-3)Gal(b1-4)[Fuc(a1-3)]GlcNAc", "summary_of_the_method": "as §1"}, "[12]": {"molecular_target": "Fuc(a1-2)Gal(b1-4)[Fuc(a1-3)]GlcNAc(b1-3)GalNAc", "summary_of_the_method": "as §1"}, "[13]": {"molecular_target": "Fuc(a1-2)Gal(b1-4)[Fuc(a1-3)]GlcNAc(b1-3)[Neu5Ac(a2-6)Gal(b1-4)GlcNAc(b1-6)]Gal(b1-4)Glc", "summary_of_the_method": "as §1"}, "[14]": {"molecular_target": "Fuc(a1-2)Gal3S(b1-4)GlcNAc", "summary_of_the_method": "as §1"}, "[15]": {"molecular_target": "Fuc(a1-2)Gal6S(b1-3)GlcNAc", "summary_of_the_method": "as §1"}, "[16]": {"molecular_target": "Fuc(a1-2)Gal6S(b1-3)GlcNAc6S", "summary_of_the_method": "as §1"}, "Fuc(a1-2)Gal6S(b1-4)Glc": {"molecular_target": "Fuc(a1-2)Gal6S(b1-4)Glc", "summary_of_the_method": "as §1"}, "[17]": {"molecular_target": "Fuc(a1-2)Gal6S(b1-4)Glc6S", "summary_of_the_method": "as §1"}, "Fuc(a1-2)[Gal(a1-3)]Gal": {"molecular_target": "Fuc(a1-2)[Gal(a1-3)]Gal", "summary_of_the_method": "as §1"}, "[18]": {"molecular_target": "Fuc(a1-2)[Gal(a1-3)]Gal(b1-3)GalNAc", "summary_of_the_method": "as §1"}, "[19]": {"molecular_target": "Fuc(a1-2)[Gal(a1-3)]Gal(b1-3)GalNAc(b1-3)Gal(a1-4)Gal(b1-4)Glc", "summary_of_the_method": "as §1"}, "[20]": {"molecular_target": "Fuc(a1-2)[Gal(a1-3)]Gal(b1-3)GlcNAc", "summary_of_the_method": "as §1"}, "[21]": {"molecular_target": "Fuc(a1-2)[Gal(a1-3)]Gal(b1-3)GlcNAc(b1-2)Man(a1-3)[Fuc(a1-2)[Gal(a1-3)]Gal(b1-3)GlcNAc(b1-2)Man(a1-6)]Man(b1-4)GlcNAc(b1-4)GlcNAc", "summary_of_the_method": "as §1"}, "[22]": {"molecular_target": "Fuc(a1-2)[Gal(a1-3)]Gal(b1-3)GlcNAc(b1-2)Man(a1-3)[Fuc(a1-2)[Gal(a1-3)]Gal(b1-3)GlcNAc(b1-2)Man(a1-6)]Man(b1-4)GlcNAc(b1-4)[Fuc(a1-6)]GlcNAc", "summary_of_the_method": "as §1"}, "[23]": {"molecular_target": "Fuc(a1-2)[Gal(a1-3)]Gal(b1-3)GlcNAc(b1-3)GalNAc", "summary_of_the_method": "as §1"}, "[24]": {"molecular_target": "Fuc(a1-2)[Gal(a1-3)]Gal(b1-3)GlcNAc(b1-6)GalNAc", "summary_of_the_method": "as §1"}, "[25]": {"molecular_target": "Fuc(a1-2)[Gal(a1-3)]Gal(b1-4)Glc", "summary_of_the_method": "as §1"}, "[26]": {"molecular_target": "Fuc(a1-2)[Gal(a1-3)]Gal(b1-4)GlcNAc", "summary_of_the_method": "as §1"}, "[27]": {"molecular_target": "Fuc(a1-2)[Gal(a1-3)]Gal(b1-4)GlcNAc(b1-2)Man", "summary_of_the_method": "as §1"}, "[28]": {"molecular_target": "Fuc(a1-2)[Gal(a1-3)]Gal(b1-4)GlcNAc(b1-2)Man(a1-3)[Fuc(a1-2)[Gal(a1-3)]Gal(b1-4)GlcNAc(b1-2)Man(a1-6)]Man(b1-4)GlcNAc(b1-4)GlcNAc", "summary_of_the_method": "as §1"}}, "note": "This is one part of the list."}
{"binder": "B1", "values": [{"measurement": "glycan array binding signal (z-score)", "setting": "[1]", "value": -0.139}, {"measurement": "glycan array binding signal (z-score)", "setting": "[2]", "value": -0.162}, {"measurement": "glycan array binding signal (z-score)", "setting": "[3]", "value": -0.162}, {"measurement": "glycan array binding signal (z-score)", "setting": "[4]", "value": -0.166}, {"measurement": "glycan array binding signal (z-score)", "setting": "[5]", "value": -0.124}, {"measurement": "glycan array binding signal (z-score)", "setting": "[6]", "value": -0.17}, {"measurement": "glycan array binding signal (z-score)", "setting": "[7]", "value": -0.142}, {"measurement": "glycan array binding signal (z-score)", "setting": "[8]", "value": -0.142}, {"measurement": "glycan array binding signal (z-score)", "setting": "[9]", "value": -0.134}, {"measurement": "glycan array binding signal (z-score)", "setting": "[10]", "value": -0.185}, {"measurement": "glycan array binding signal (z-score)", "setting": "[11]", "value": -0.107}, {"measurement": "glycan array binding signal (z-score)", "setting": "[12]", "value": -0.102}, {"measurement": "glycan array binding signal (z-score)", "setting": "[13]", "value": -0.161}, {"measurement": "glycan array binding signal (z-score)", "setting": "[14]", "value": -0.182}, {"measurement": "glycan array binding signal (z-score)", "setting": "[15]", "value": -0.2}, {"measurement": "glycan array binding signal (z-score)", "setting": "[16]", "value": -0.145}, {"measurement": "glycan array binding signal (z-score)", "setting": "Fuc(a1-2)Gal6S(b1-4)Glc", "value": -0.15}, {"measurement": "glycan array binding signal (z-score)", "setting": "[17]", "value": -0.157}, {"measurement": "glycan array binding signal (z-score)", "setting": "Fuc(a1-2)[Gal(a1-3)]Gal", "value": -0.174}, {"measurement": "glycan array binding signal (z-score)", "setting": "[18]", "value": -0.172}, {"measurement": "glycan array binding signal (z-score)", "setting": "[19]", "value": -0.155}, {"measurement": "glycan array binding signal (z-score)", "setting": "[20]", "value": -0.163}, {"measurement": "glycan array binding signal (z-score)", "setting": "[21]", "value": -0.123}, {"measurement": "glycan array binding signal (z-score)", "setting": "[22]", "value": -0.129}, {"measurement": "glycan array binding signal (z-score)", "setting": "[23]", "value": -0.141}, {"measurement": "glycan array binding signal (z-score)", "setting": "[24]", "value": -0.15}, {"measurement": "glycan array binding signal (z-score)", "setting": "[25]", "value": -0.163}, {"measurement": "glycan array binding signal (z-score)", "setting": "[26]", "value": -0.161}, {"measurement": "glycan array binding signal (z-score)", "setting": "[27]", "value": -0.161}, {"measurement": "glycan array binding signal (z-score)", "setting": "[28]", "value": -0.169}]}
